The whole screen tested about 360,000 compounds, of which about 7,500 (2.1%) were called active. Inconclusive results, whose numbers are uncertain, are shown with a selection of clear calls. Calls come from the whole dose curve; as a rule, active = well fitted cell-killing curve with a large enough effect; inconclusive = small, poorly fitted or top-dose-only effect, or effect the other way, or another doubt; inactive = no such curve, though single readings can be large or run the other way. Potencies of inconclusive entries are left out as doubtful fits.
Test: qHTS for induction of synthetic lethality in tumor cells producing 2HG: qHTS for the HT-1080-IDH1KD cell line;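 for activity, negative = toxicity: 0% = DMSO wells and -100% = cell-free medium wells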
Details: HT-1080 IDH1 knockdown viability, ATP luminescence, 48 h; activity, negative = toxicity: at 46.1 µM (top of the series) unless noted
Summary of the method: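 Viability of IDH1-knockdown HT-1080 fibrosarcoma cells was assessed by CellTiter-Glo after 48 h at 37 °C with titrated compound; concentration-effect curves were classified by fit quality and response size.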
Potency is the fitted concentration of half-maximal effect; tags give direction and shape of the fitted curve.

| Compound | Potency | activity, negative = toxicity |
| --- | --- | --- |
| Cc1ccc(OCCN2C(=O)C(=O)c3cc(C)ccc32)cc1 | inconclusive [cytotoxic, partial curve] |  |
| CSc1ccccc1-c1nnc(-c2ccc(Cl)cc2)o1 |  | inactive: -1.6% [at 9.24 µM] |
| CCOc1cc(C=O)ccc1OCCn1c([N+](=O)[O-])cnc1C | inconclusive [cytotoxic, partial curve, poor fit] |  |
| CC(C)n1c(S(=O)(=O)O)nc2ccccc21 | inconclusive [rising, single point] |  |
| CN1CCC(=NNC(=O)c2cc(-c3ccc(Cl)cc3)n[nH]2)CC1 | inconclusive [cytotoxic, single point] |  |
| COc1cccc(-n2nnnc2SCC(=O)NCCc2ccccc2)c1 |  | inactive: -1.84% |
| CCOC(=O)CC(=O)CSc1ccc2nnc(-c3ccc(C)cc3)n2n1 | inconclusive [cytotoxic, single point] |  |
| O=C(NC(Cc1ccccc1)C(=O)O)/C(=C\c1ccccc1)NC(=O)c1ccc(Br)o1 (configuration not stated) |  | inactive: -3.69% |
| COc1cccc(/C=N/NC(=O)CNC(=O)c2ccc3c(c2)OCCO3)c1O | inconclusive [cytotoxic, partial curve] |  |
| Cc1ccc(CCC(=O)Nc2ncc(Cc3cccc(Cl)c3Cl)s2)o1 | inconclusive [cytotoxic, full curve] |  |
| O=C(O)CC1COc2ccccc2N1S(=O)(=O)c1ccc(Br)cc1 (configuration not stated) |  | inactive: 2.1% |
| Cc1sc2ncnc(SCC(=O)Nc3ccc(S(=O)(=O)N4CCOCC4)cc3)c2c1C |  | inactive: -13.6% |
| Cc1ccc(C)c(N/C(N)=N/c2nc(C)cc(C)n2)c1 |  | inactive: -11.3% |
| COc1cccc(C(=O)OCC(=O)N2CCc3ccccc3C2)c1 |  | inactive: -1.19% |
| Cn1c(=O)c2c(nc(/C=C/c3cccc(Cl)c3)n2C)n(C)c1=O |  | inactive: 10.2% |
| COc1ccc(-c2[nH]ncc2/C=C(/C#N)C(=O)NC2CCCCC2)cc1 | inconclusive [cytotoxic, single point] |  |
| Cc1c(C(=O)N(C)c2ccccc2)oc2c1C(O)CC(C)(C)C2 (configuration not stated) |  | inactive: 15.2% |
| Cc1ccc(C(=O)O/N=C2/CC3CCC2(C)[C@@]3(C)CBr)cc1 (some centres not stated) | inconclusive [cytotoxic, single point] |  |
| Cc1c(C)n(CCc2ccccc2)c2ncnc(NCCCN(C)C)c12 | inconclusive [cytotoxic, single point] |  |
| COc1ccc(C2=NN(C(=O)COc3ncnc4ccccc34)C(c3ccco3)C2)cc1 (configuration not stated) | inconclusive [cytotoxic, partial curve] |  |
| CC(=O)N1CCc2c(sc(NC(=O)C3CC3)c2-c2nc3ccccc3s2)C1 | inconclusive [cytotoxic, single point] |  |
| CC(=O)c1cccc(NC(=O)c2ccc([N+](=O)[O-])o2)c1 | inconclusive [cytotoxic, single point] |  |
| C=C1C(=O)O[C@@H]2[C@H]1CC[C@H](C)[C@]1(O)CCC(=O)[C@@]21C | inconclusive [cytotoxic, single point] |  |
| Oc1ccc(O)c(Cc2nc3ccccc3s2)c1 | active: 16.4 µM |  |

| Compound | Potency | activity, negative = toxicity |
| --- | --- | --- |
| Cc1ccccc1N1CC(C(=O)Nc2nnc(SCc3cccnc3)s2)CC1=O (configuration not stated) |  | inactive: -3.54% |
| CCCCn1c(CCc2ccccc2)nc2cc3[nH]c(=O)c(C(C)C)nc3cc21 | inconclusive [cytotoxic, partial curve] |  |
| Cc1nn(-c2ccccc2)c2c1CC(=O)Nc1ccccc1-2 | inconclusive [cytotoxic, partial curve] |  |
| CN(C)c1ccc(NC(=O)c2cccc(C(=O)Nc3ccc(N(C)C)cc3)n2)cc1 |  | inactive: -14.3% |
| CN(C)S(=O)(=O)c1cccc(NC(=O)/C=C/c2ccccc2[N+](=O)[O-])c1 |  | inactive: 8.17% |
| CNc1nc(N/N=C/c2cc3c(cc2[N+](=O)[O-])OCO3)nc(Nc2ccccc2)n1 | inconclusive [cytotoxic, single point] |  |
| COCCN=c1scc(-c2cc(OC)ccc2OC)n1/N=C/c1c[nH]c2ccccc12 | inconclusive [cytotoxic, single point] |  |
| O=C(Nc1ccc(F)c(Cl)c1)C1Cc2c(-c3ccc4c(c3)OCO4)ccnc2O1 (configuration not stated) | active: 25.9 µM |  |
| CCOC(=O)C1(CCOc2ccccc2)CCN(Cc2cccc3nonc23)CC1 | inconclusive [cytotoxic, single point] |  |
| CC(Oc1ccccc1F)C(=O)Nc1ccc2ccccc2c1 (configuration not stated) | inconclusive [cytotoxic, partial curve] |  |
| CCc1nn(CCCN2CCN(c3cccc(Cl)c3)CC2)c(=O)n1CCOc1ccccc1 | inconclusive [cytotoxic, single point] |  |
| CCOc1cc2c(c3c1C(c1ccccc1)N(S(=O)(=O)c1ccc(C)cc1)C3)C(=O)C=CC2=O (configuration not stated) | active: 11.6 µM |  |
| O=C(O)CCn1cc(C2CC(c3ccccc3)=NN2c2ccccc2)c(-c2ccccc2)n1 (configuration not stated) | inconclusive [cytotoxic, single point] |  |
| O=C(CCNc1cccc(F)c1)c1cccc([N+](=O)[O-])c1 | inconclusive [cytotoxic, single point] |  |
| COc1ccc(Cc2c(-c3ccco3)nc3ccc(Cl)cn23)c(C)c1 | inconclusive [cytotoxic, single point] |  |
| Cc1cc(-n2cnc(-c3cn[nH]c3C)n2)no1 |  | inactive: 3.94% |
| O=C(CSc1ncn[nH]1)Nc1c(Br)cc([N+](=O)[O-])cc1Br |  | inactive: 13.2% |
| C#CCOCCOCCOCCNc1nc(N2CCN(C(=O)Cn3cc(CCCCN)nn3)CC2)nc(N2CCN(C(=O)Cn3cc(CCCN=C(N)N)nn3)CC2)n1 |  | inconclusive: 10.8% |
| COc1ccc(Cl)cc1NC(=O)c1[nH]c(C)c(C(C)=O)c1C |  | inactive: -2.36% |
| C/C(=N\NC(=O)c1cc(-c2cccnc2)nc2ccccc12)c1ccccc1O | active: 9.2 µM |  |
| CC1CCC(NC(=O)CCn2ccc3cc(S(=O)(=O)N4CCCC4)ccc32)CC1 (configuration not stated) |  | inactive: -0.832% |
| O=C(C1CCCN(S(=O)(=O)c2cccc3nsnc23)C1)N1CCc2ccccc2C1 (configuration not stated) |  | inactive: -11.2% |
| CCc1cc2c(=O)c(-c3nc4ccccc4n3C)c(C)oc2c(CN2CCCCC2)c1O |  | inactive: -4.64% |
| COc1ccc(CCN(C)Cc2ccc(OC)c(OCc3ccccc3)c2)cc1OC | inconclusive [cytotoxic, partial curve] |  |

| Compound | Potency | activity, negative = toxicity |
| --- | --- | --- |
| CN(C)CCCN(C(=O)c1ccco1)c1nc2ccc(Br)cc2s1 | active: 20.6 µM |  |
| Cc1cccc(-n2c(C)n[nH]c2=S)c1 | inconclusive [cytotoxic, single point] |  |
| O=C(c1ccccc1Oc1ccc([N+](=O)[O-])cc1)N1CCOCC1 |  | inactive: 1.8% |
| O=C(/C=C\c1ccccc1OC(=O)c1ccccc1F)c1cc2ccccc2o1 | inconclusive [cytotoxic, partial curve] |  |
| Cc1cc(-c2ccccc2)nc(SCC(=O)c2cccc([N+](=O)[O-])c2)n1 | inconclusive [cytotoxic, single point] |  |
| COc1ccc(C)cc1NS(=O)(=O)c1ccc(NC(=O)CN(c2cc([N+](=O)[O-])ccc2C)S(C)(=O)=O)cc1 | inconclusive [cytotoxic, single point] |  |
| O=C(Nc1ccccc1Cl)C1CCN(Cc2cnn(-c3ccccc3)c2-n2cccc2)CC1 | inconclusive [cytotoxic, single point] |  |
| Cc1cc(OCC(=O)NCc2ccccn2)c2c(C)c(Cc3ccccc3)c(=O)oc2c1 |  | inactive: -1.28% |
| COc1cccc(NC(=O)c2nc(S(C)(=O)=O)ncc2Cl)c1 | active: 8.2 µM |  |
| COc1cccc(-c2noc(CCCC(=O)Nc3ccc(C(N)=O)cc3)n2)c1 |  | inactive: 13.7% |
| O=C(N/N=C/C(Br)=C/c1ccccc1)c1n[nH]c2c1CCC2 | active: 7.94 µM |  |
| CC(Sc1nnc(Nc2ccccc2)s1)C(=O)NC1CCCc2ccccc21 (configuration not stated) |  | inactive: -0.966% |
| COC(=O)[C@H](Cc1ccccc1)NC(=O)C1CCN(C(=O)[C@H](C)NS(=O)(=O)c2ccc(C)cc2)CC1 |  | inactive: -3.94% |
| Cc1nc(C(F)(F)F)ccc1C(=O)N1CCC1(C)C(=O)NS(=O)(=O)c1ccc(C(C)(C)C)cc1 (configuration not stated) | inconclusive [rising, partial curve] |  |
| CNC(=S)N/N=C/c1ccc(-c2ccc(C(=O)O)cc2)o1 | active: 8.2 µM |  |
| CC(=O)Oc1ccc(C(c2ccc(OC(C)=O)cc2)c2ccccn2)cc1 | inconclusive [cytotoxic, partial curve] |  |
| COc1ccc(-c2[nH][nH]c(=O)c2NC(=O)c2ccc(C)cc2)cc1 |  | inactive: 1.47% |
| COc1cccc(-c2cccc(-c3nc(C(=O)Nc4ccc(-c5ccccc5)cc4)cc4c3[C@H](CCO)N(S(=O)C(C)(C)C)C4)c2)c1 (some centres not stated) | inconclusive [cytotoxic, single point] |  |
| COCCn1c(C)cc(C(=O)CSc2nc(C)c(C)c(C)n2)c1C |  | inactive: 10.2% |
| Cc1cccc(NC(=O)c2cc(NC(=O)C3CC=CCC3C(=O)O)ccc2N2CCOCC2)c1 (configuration not stated) |  | inactive: 12% |
| CC[C@]12c3[nH]c4cc(CCC(=O)N(C)C)ccc4c3CCN1C(=O)[C@@H](CC(=O)NCCC1=CCCCC1)C[C@@H]2C(=O)N1CCN(C(=O)c2ccco2)CC1 |  | inactive: -2.11% |
| Cc1cccc(-c2nc(Nc3ccc(N4CCOCC4)cc3)c3ccccc3n2)c1 | inconclusive [cytotoxic, single point] |  |
| O=C(NCCN1CCOCC1)c1cc(-c2ccccc2)on1 | inconclusive [cytotoxic, single point] |  |
| O=C1C=C(Nc2cccc(O)c2)CC(c2ccco2)C1 (configuration not stated) |  | inactive: 0.874% |

Reference: PubChem BioAssay AID686971 (National Center for Advancing Translational Sciences (NCATS), 2013)
